Experimental data taken from PMC6516834, “Tight bending of the Ndc80 complex provides intrinsic regulation of its binding to microtubules” (eLife, 2019).

Target: taxol-stabilized microtubules (bovine brain tubulin) (bovine, UniProt Q6B856)
Test: single molecule TIRF microscopy (residence time on microtubules); fluorescent complexes in solution on taxol-stabilized microtubules; standard BRB80 buffer; mean residence time, error by bootstrapping
Details: both partners purified

mean residence time on microtubules: 5.6 s
B1: Broccoli-GFP (shortened dimeric construct, Ndc80 […] / Nuf2 […] with GFP fused C-terminally to Nuf2) (complex)
chain 1: [about 550 residues left out]
chain 2: MSRNQDVFPILDLQELVICLQSCDFALATQENISRPTSDYMVTLYKQIIENFMGISVESLLNSSNQETGDGHLQEENENIYLDTLNVLVLNKICFKFFENIGVQDFNMTDLYKPEAQRTQRLLSAVVNYARFREERMFDCNSFILQMESLLGQLRSKFDDYNLIQQQLKQYEDVDGDNIPDEQELQKLEEQNKELEIQLKKLTKIQETLSIDYNDYKISKQSIFKDLEALSFQIVELESNRDKLIKISNTDMEELSEGIKELNDLLIQRKKTLDDLTAQQKNLQDTVTTFETIISELYDVLRIISSEVQESNRTETELVGLKQNLINNKLKLMNVLETG
notes: Ndc80, S. cerevisiae, […] (C-terminus removed); Nuf2, S. cerevisiae, […] (C-terminus removed); also called […]/Nuf2-GFP; Ndc80/Nuf2; source: E. coli BL21, purified (Ni-charged IMAC resin, size exclusion chromatography); not shown: GFP, C-terminal, kept
